Data: PubChem BioAssay AID624296 (National Center for Advancing Translational Sciences (NCATS), 2012)
The whole screen tested about 350,000 compounds, of which about 9,900 (2.8%) were called active. Inconclusive means that the source gave no clear call. Such entries were picked first, then a sample of the others. Calls follow the shape of the dose curve; as a rule, active = well fitted activation curve with a large enough effect; inconclusive = small, poorly fitted or top-dose-only effect; inactive = no such curve, though single readings can be large or run the other way. Potencies of inconclusive entries are left out as doubtful fits.

Assay: A quantitative high throughput screen for small molecules that induce DNA re-replication in MCF 10a normal breast cells. Also: nearly all actives have a fitted effect of over 50% in size. As to activity, positive = re-replication: % of control where 0% means no effect.
Settings: MCF 10A DNA re-replication, Hoechst nuclear intensity, 48 h; activity, positive = re-replication: at 46.1 µM (top of the series)
Potency is read from the fitted curve at half-maximal effect; tags tell the direction and shape of the fitted curve.

Compound | activity, positive = re-replication | Potency
CC(C)COc1ccc(S(=O)(=O)NNC(=O)c2cc3ccccc3o2)cc1 | inactive: 16.9% | –
CCOC(=O)C1(CC)NC(c2ccco2)C2C(=O)N(C)C(=O)C21 (stereo not drawn) | – | inconclusive [activator, single point]
O=C(NCc1cc(C(F)(F)F)ccc1Cl)c1cccc2c1C(=O)c1ccc(N3CCOCC3)cc1S2(=O)=O | – | inconclusive [activator, partial curve, poor fit]
O=S(=O)(c1ccc(Cl)c(Cl)c1)c1snnc1-c1ccccc1 | – | active: 4.61 µM
CCc1ccc(NC(=O)COc2cccc(-n3cnnn3)c2)cc1 | – | inconclusive [activator, single point]
CSc1ccc(CN(C)Cc2cc(=O)oc3c(C)c(C)ccc23)cc1 | – | inconclusive [activator, single point]
CCOC(=O)C1CCN(C(=O)c2ccc(Cl)c(S(=O)(=O)N3CCOCC3)c2)CC1 | – | active: 13 µM
CCOC(=O)c1ccc(Nc2nc(C(=O)OCC)nc3ccccc23)cc1 | – | inconclusive [activator, partial curve, poor fit]
CC(=O)Nc1nonc1-c1nc2ccccc2n1Cc1ccccc1 | – | inconclusive [activator, single point]
CCN(CC(=O)Nc1ccc2c(c1)OCCO2)S(=O)(=O)c1ccc(F)cc1 | inactive: -12% | –
COc1ccccc1CC(=O)Nc1ccc(S(=O)(=O)N2CC(C)CC(C)C2)cc1 (stereo not drawn) | – | inconclusive [activator, partial curve, poor fit]
CC(=O)c1ccc(S(=O)(=O)NCCC(=O)OCC(=O)N(Cc2ccccc2)C(C)(C)C)cc1 | inactive: 4.75% | –
O=C(CSc1ccccc1)Nc1ccc2c(c1)OCCO2 | – | inconclusive [activator, single point]
CCCOc1ccccc1C1CC(=O)Nc2cc3c(cc21)OCCO3 (stereo not drawn) | – | inconclusive [activator, full curve, poor fit]
O=[N+]([O-])c1ccccc1N/N=C\c1ccccc1F | inactive: 5.37% | –
CCOc1ccc(CCN2C(=S)N([C@@H](CC(C)C)CN3CCCC3CN3C(=S)NC[C@@H]3CC(C)C)C[C@@H]2Cc2ccc(O)cc2)cc1 (stereo partly drawn) | – | inconclusive [activator, single point]
COC(=O)CNC(c1ccccc1)c1cc(C)ccc1NC(=O)c1cccc(Cl)c1 (stereo not drawn) | – | inconclusive [activator, single point]
CCCn1c(O)c(/C=C2\C=NN=C2c2ccccc2)sc1=S | – | active: 9.2 µM
CC(=O)N(C)c1ccc(NS(=O)(=O)c2cccc3nsnc23)cc1 | inactive: 10.1% | –
Cc1ccc(S(=O)(=O)N2CCOCC2)cc1C(=O)N(C)CCOc1ccc(Cl)cc1 | inactive: 2.61% | –
Cc1ccc(S(=O)(=O)N2C=CC(C(F)(F)F)=NCC2)cc1 | inactive: 2.45% | –
CC(C)(C)n1nc(Cc2cccc3ccccc23)c2c(N)ncnc21 | – | inconclusive [activator, single point]

Compound | activity, positive = re-replication | Potency
Clc1ccc(C2=C3CCCCn4c(-c5ccccc5)c[n+](c43)C2)cc1 | – | inconclusive [activator, single point]
Cc1ccc(NC(=O)CN(C)CC(=O)Nc2cccc(F)c2)cc1S(=O)(=O)N1CCCCCC1 | – | inconclusive [activator, single point]
COc1ccc(/C=C/C(=O)Oc2cccc(/C=N/NC(=O)COc3c(C)cccc3C)c2)cc1 | – | inconclusive [activator, partial curve]
COc1ccc(C2C(Oc3ccccc3)C(=O)N2c2ccc(C)c(C)c2)cc1OC (stereo not drawn) | inactive: 12.3% | –
COc1ccc2nc(C)cc(Nc3ccc(N4CCN(C)CC4)cc3)c2c1 | – | inconclusive [activator, single point]
COc1cc(-c2nc3cnccn3c2Nc2ccc3c(c2)OCCO3)ccc1O | – | inconclusive [activator, partial curve, poor fit]
O=C(COc1ccc(Br)cc1CO)Nc1ccc(S(=O)(=O)N2CCCC2)cc1 | inactive: 13.7% | –
CCC(Oc1ccccc1)C(=O)Nc1nnc(C(F)(F)F)s1 (stereo not drawn) | – | inconclusive [activator, partial curve]
CC(C)(C)c1ccc(C(=O)c2cn[nH]c2-c2ccccc2O)cc1 | – | inconclusive [activator, single point]
Cn1c(SCC(=O)Nc2ccccc2[N+](=O)[O-])nnc1C(F)(F)F | inactive: 2.3% | –
COc1ccccc1C1=NC(c2ccccc2)CN1c1ccccc1 (stereo not drawn) | – | active: 5.17 µM
CC(C)S(=O)(=O)c1csc(NC(=O)Nc2ccc(Cl)cc2)c1Cl | – | inconclusive [activator, partial curve, poor fit]
O=C1C=C(c2ccccc2)CO1 | inactive: -1.98% | –
COc1ccc2nc(SCC(=O)N3CCCCCC3)c(C#N)cc2c1 | – | inconclusive [activator, single point]
CCN1CCN(c2ccc(S(=O)(=O)N3CCOCC3)cc2NC(=O)c2ccc(Cl)cc2Cl)CC1 | – | inconclusive [activator, single point]
Cc1ccc(S(=O)(=O)N2CCN(S(=O)(=O)N3CCC(C)CC3)CC2)cc1C | – | active: 18.4 µM
O=C(COc1c(Br)cc(Br)c2cccnc12)N1CCc2ccccc2C1 | – | inconclusive [activator, single point]
Cc1ccc(-n2c(=S)[nH]c3sc4c(c3c2=O)CCC4)cc1 | – | inconclusive [activator, single point]
COC(=O)[C@]1(CC(C)C)N[C@H](c2ccc(-c3ccc(F)cc3)c(OC)c2)[C@@H]2C(=O)N(C)C(=O)[C@@H]21 | – | inconclusive [activator, full curve, poor fit]
CC(C)CC(=O)Nc1sc2c(c1C#N)CC(C)(C)NC2(C)C | – | inconclusive [activator, partial curve, poor fit]
CC(C)Cc1nnc(NC(=O)Nc2ccccc2)s1 | – | inconclusive [activator, single point]
